From ChEMBL document CHEMBL1201862, “PubChem BioAssay data set” (2004)

tested on: NCI-H322M; assay: NCI-60 cell line screen, 48 h

How did the GI50 turn out when `CC1=CCC[C@H]2[C@](C)(CC3=CC(=O)C(Sc4ccccc4)=CC3=O)[C@@H](C)CC[C@]12C` was run?
The GI50 was inactive: 17 µM.

With `O=C(O)c1nc2nc(Cl)c(Cl)nc2[nH]1` as the compound, how does the GI50 read?
Its GI50 is inactive: > 100 µM.

`CN(C(=O)c1cccs1)C(=S)N1CCN(c2ccccc2)CC1` was tested. Which GI50 did it give?
Its GI50 is inactive: > 100 µM.

With `O=C(CC1(O)C(=O)Nc2c(Cl)ccc(Cl)c21)c1ccc2ccccc2c1` (stereo not given) as the compound, how does the GI50 read?
The GI50 was inactive: 18.8 µM.

How did the GI50 turn out when `C(=N\CCCN1CCN(CCC/N=C/c2cccc3ccccc23)CC1)/c1cccc2ccccc12` was run?
Its GI50 is inactive: > 100 µM.

`NNC(=O)CC(=O)Nc1ccccc1Cl` was tested. Which GI50 did it give?
Its GI50 is inactive: > 100 µM.

For `CSC(C1c2ccccc2N(C)C2=NC(=O)N(C)C(=O)C21Cl)S(=O)(=O)c1ccc(C)cc1` (stereo not given), which GI50 is on record?
Its GI50 is inactive: > 100 µM.

For `CN(C)CC(C)(C)CN1c2ccccc2Sc2ccccc21`, which GI50 is on record?
Its GI50 is inactive: 15.5 µM.

With `OCC1(CNc2cc(Cl)ncn2)CCC1` as the compound, how does the GI50 read?
The GI50 was inactive: > 100 µM.

`COC(=O)CN(CC1O[C@@H]2OC(C)(C)O[C@@H]2C1N=[N+]=[N-])C(=O)OCc1ccccc1` (stereo not given in full) was tested. Which GI50 did it give?
Its GI50 is inactive: > 100 µM.

For `CC1(C)OB(O)OC1(C)C`, which GI50 is on record?
The GI50 was inactive: > 100 µM.

With `CCCCCCCCCCCCCCCCCCNc1ccn(C2OC(COP(=O)(O)O)C(O)C2O)c(=O)n1` (stereo not given) as the compound, how does the GI50 read?
The GI50 was inactive: > 100 µM.

For `COC(=O)[C@H](Cc1ccccc1)NP(=O)(O)OCC1OC(n2cc(C)c(=O)[nH]c2=O)CC1N=[N+]=[N-]` (stereo not given in full), which GI50 is on record?
Its GI50 is inactive: > 100 µM.

`CC12CCC(CC1=O)C2(C)CCC(N)=O` (stereo not given) was tested. Which GI50 did it give?
The GI50 was inactive: > 100 µM.

With `Clc1ccc(Cc2nc3cc4ccccc4cc3[nH]2)cc1Cl` as the compound, how does the GI50 read?
Its GI50 is inactive: 23.7 µM.

Which GI50 does the source give for `CCCCCCCC(=O)O[C@H]1[C@H]2[C@@H](CC1(C)C)C(=O)[C@]13O[C@H]1C(=O)[C@]1(CO1)[C@]23C` here?
The GI50 was inactive: 16.9 µM.

Which GI50 does the source give for `N#CC(C#N)=C1NC(=O)CC(=O)N1` here?
Its GI50 is inactive: > 100 µM.

How did the GI50 turn out when `COc1ccc(NC(=S)c2ccoc2C)cc1CC(=O)OC(C)C` was run?
The GI50 was inactive: > 100 µM.

With `COc1cc2c(cc1OC)CN1CCc3ccccc3CC1C2` (stereo not given) as the compound, how does the GI50 read?
Its GI50 is inactive: 59.3 µM.

How did the GI50 turn out when `O=C1C=C[C@@]23CC1C(O)C[C@H]2C=Cc1ccccc13` (stereo not given in full) was run?
Its GI50 is inactive: > 100 µM.

For `COc1cc(C=C2C(C)=NN(c3cccc(Cl)c3)C23C(Cl)C(=O)N3c2nc3ccccc3s2)ccc1O` (stereo not given), which GI50 is on record?
Its GI50 is inactive: 19.5 µM.

For `CCOC(=O)/C=C(\C(=O)OCC)n1ccc(=O)n(Cc2cn(COCCOC(C)=O)nn2)c1=O`, which GI50 is on record?
The GI50 was inactive: > 100 µM.

For `C=CCn1c(-c2cc(C(C)(C)C)c(O)c(C(C)(C)C)c2)cs/c1=N\C(P(=O)(O)O)P(=O)(O)O`, which GI50 is on record?
Its GI50 is inactive: > 100 µM.

`Cc1cc(C)nc(NS(=O)(=O)c2ccc(Nc3c4ccccc4nc4c(C(=O)Nc5ccc(S(=O)(=O)Nc6cc(C)on6)cc5)ccc(Cl)c34)cc2)n1` was tested. Which GI50 did it give?
The GI50 was inactive: 18.6 µM.

For `COc1ccc(/C(=N/O)c2ccccc2C2=Nc3ccccc3C(NCc3ccccc3)O2)cc1C` (stereo not given), which GI50 is on record?
The GI50 was inactive: > 100 µM.

Which GI50 does the source give for `CNS(=O)(=O)NNS(=O)(=O)c1cccc([N+](=O)[O-])c1` here?
The GI50 was inactive: > 100 µM.

How did the GI50 turn out when `O=Cc1c(O)c(C(=O)Nc2ccc3[nH]c(=O)[nH]c3c2)cc2ccccc12` was run?
The GI50 was inactive: > 100 µM.

How did the GI50 turn out when `CN1C(=O)C2(Cc3cn(C45CC67SSC(CO)(C(=O)N6C4Nc4ccccc45)N(C)C7=O)c4ccccc34)SSC1(CO)C(=O)N2C` (stereo not given) was run?
The GI50 was active: 0.405 µM.

For `COC1CC(COCc2ccccc2)CC(OC)O1` (stereo not given), which GI50 is on record?
Its GI50 is inactive: > 100 µM.

Which GI50 does the source give for `Cc1cc(C(=O)CBr)c(CN2C(=O)c3ccccc3C2=O)c(=O)n1C` here?
Its GI50 is inactive: 31.9 µM.

With `CC(C)NC(=O)OCc1c(COC(=O)NC(C)C)c(-c2ccc[n+](COC(=O)Cc3ccccc3)c2)n2c1CCC2` as the compound, how does the GI50 read?
Its GI50 is inactive: 54.6 µM.

Which GI50 does the source give for `C=CCC1(C)CCCN(Cc2ccccc2)C1=O` (stereo not given) here?
The GI50 was inactive: > 10 µM.

For `C/C(=N\O)c1sc(-n2nc(-c3ccccc3)cc2-c2ccccc2)nc1C`, which GI50 is on record?
The GI50 was inactive: 19.2 µM.

`CCn1c(O)c(C(=O)NC(C)c2ccc([N+](=O)[O-])cc2)c(=O)n(CC)c1=S` (stereo not given) was tested. Which GI50 did it give?
The GI50 was inactive: 2.85 µM.

For `Cc1cn(C2CCC(CO)(CF)O2)c(=O)[nH]c1=O` (stereo not given), which GI50 is on record?
Its GI50 is inactive: > 100 µM.

Which GI50 does the source give for `COC1OC(COC(=O)NCCCCC(=O)C(F)(F)F)C(O)C(O)C1O` (stereo not given) here?
The GI50 was inactive: > 100 µM.

How did the GI50 turn out when `CN(c1c(Cl)cccc1Cl)S(=O)(=O)c1ccccc1[N+](=O)[O-]` was run?
The GI50 was inactive: > 100 µM.

`COc1ccc2c(c1)nc1n2C(c2c(F)cccc2Cl)SC1` (stereo not given) was tested. Which GI50 did it give?
The GI50 was inactive: 22.6 µM.

For `C[C@]12C(=O)OC[C@H](c3ccccc3)N1C(=O)N(Cc1ccccc1)[C@@H]2CO`, which GI50 is on record?
The GI50 was inactive: > 100 µM.

Which GI50 does the source give for `CNC(=S)NN=C1NCCCN1` here?
The GI50 was inactive: > 100 µM.

Which GI50 does the source give for `COc1ccccc1/N=N/c1c(O)ccc2ccccc12` here?
The GI50 was inactive: 43.8 µM and inactive: 55.1 µM.

Which GI50 does the source give for `CC1=C(C(=O)O)N2C(=O)[C@@H](NC(=O)C(c3ccc(O)cc3)N3CSC(=S)N(C(C)C)C3)C2SC1` (stereo not given in full) here?
Its GI50 is inactive: > 100 µM.

How did the GI50 turn out when `N/N=C1\C(=O)N(c2ccc(Cl)cc2Cl)C(=O)C(=O)C1c1nc2ccccc2o1` (stereo not given) was run?
Its GI50 is inactive: > 100 µM.

How did the GI50 turn out when `COc1ccc(C=C(c2ccc(OCc3ccccc3)cc2)c2ccc(OCc3ccccc3)cc2)cc1` was run?
Its GI50 is inactive: > 100 µM.

For `C[C@H]1CC[C@@]2(OC1)O[C@H]1C[C@H]3[C@@H]4CC[C@@H]5C[C@@H](OC6OC(CO)C(O)C(O)C6OC6OC(CO)C(O)C(O)C6O)CC[C@]5(C)[C@H]4CC[C@]3(C)[C@H]1[C@@H]2C` (stereo not given in full), which GI50 is on record?
The GI50 was inactive: 1.93 µM.

Which GI50 does the source give for `Cc1nc(Cl)c(CBr)c(Cl)n1` here?
Its GI50 is inactive: 2 µM.

With `O=P1(Oc2ccccc2)N(CCCl)CCN1c1ccccc1` (stereo not given) as the compound, how does the GI50 read?
Its GI50 is inactive: > 100 µM.

How did the GI50 turn out when `O=C1c2cscc2C(=O)C1(O)O` was run?
The GI50 was inactive: > 100 µM.

With `CS(=O)(=O)c1ccc(COP(N)(=O)N(CCCl)CCCl)cc1` (stereo not given) as the compound, how does the GI50 read?
The GI50 was inactive: > 100 µM.

`OC1OC2COC(c3ccccc3)OC2C(O)C1O` (stereo not given) was tested. Which GI50 did it give?
Its GI50 is inactive: > 100 µM.

Which GI50 does the source give for `CC(=O)NC(CCCCNC(=O)N(C)N=O)C(=O)NCc1ccccc1` (stereo not given) here?
The GI50 was inactive: > 100 µM.

For `CC1S/C(=N/c2nnc(-c3ccccc3)o2)NC1=O` (stereo not given), which GI50 is on record?
The GI50 was inactive: 40.2 µM.

How did the GI50 turn out when `CSc1nc(SC)c2c(C)c(Br)[nH]c2n1` was run?
Its GI50 is inactive: > 100 µM.

`Nc1ncnc2c1ncn2[C@H]1C=C[C@@H](NO)C1` was tested. Which GI50 did it give?
Its GI50 is inactive: > 100 µM.

How did the GI50 turn out when `COc1ccc(-c2cc(=O)c3cc(C)c(C)c(C(=O)O)c3o2)cc1` was run?
The GI50 was inactive: > 100 µM.

With `N#Cc1c(=O)c2ccccc2n2c1[nH]c1ccccc12` as the compound, how does the GI50 read?
Its GI50 is inactive: 25 µM.

`Nc1c(S(=O)(=O)c2ccc(Cl)cc2)c2nc3ccccc3nc2n2ccnc12` was tested. Which GI50 did it give?
The GI50 was inactive: 75.5 µM.

With `CC1=C(C(=O)N(C(C)C)C(C)C)CC(C(=O)N(C(C)C)C(C)C)=C(C)N1` as the compound, how does the GI50 read?
Its GI50 is inactive: > 100 µM.

How did the GI50 turn out when `O=C(O)C[C@@H]1[C@@H](O)[C@@H](O)CN2C(=O)c3ccccc3[C@H]12` was run?
The GI50 was inactive: > 100 µM.

With `CCC1([N+](=O)[O-])CN(N=O)C1` as the compound, how does the GI50 read?
Its GI50 is inactive: > 100 µM.

With `Cc1ccc([N+](=O)[O-])cc1NC1=NCCO1` as the compound, how does the GI50 read?
Its GI50 is inactive: > 100 µM.

How did the GI50 turn out when `COc1cc(/C=C/C(=O)N[C@@H]2C(=O)N3[C@@H]2SC(C)(C)[C@@H]3C(=O)O)ccc1O` was run?
The GI50 was inactive: > 100 µM.

For `C[C@]12OC(=O)[C@]3(O)CC[C@H]4[C@@H](C[C@@H](O)[C@@]5(Cl)CC=CC(=O)[C@]45C)[C@]45OCC6C(=O)O[C@@H]1C[C@@]6(C)[C@H](C4=O)[C@@]32O5` (stereo not given in full), which GI50 is on record?
Its GI50 is inactive: 5.04 µM.

For `COc1cc(C[C@@H](C)N)cc(OC)c1`, which GI50 is on record?
Its GI50 is inactive: > 100 µM.

Which GI50 does the source give for `COc1cccc(/C=C/c2cc(OC)c(OC)c(OC)c2)c1` here?
Its GI50 is inactive: 62.4 µM.

“And” between values parts separate entries of the source, which are not always exact repeats. Equal values may be shown once.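 Exposure lasted 48 hours, with cells grown in 96-well plates and compounds tested at five concentrations. Here, GI50 denotes the concentration required for 50% inhibition of growth.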 The source made the active and inactive calls. Rule as the data show it: active = GI50 up to about 1.1 µM and inactive = higher.
